# According to the supplement of paper PMC8728848:
# The list shows a part of the results.
# B1: DC-Sign (Homo sapiens), Q9NNX6 (protein)
# chain: MSDSKEPRLQQLGLLEEEQLRGLGFRQTRGYKSLAGCLGHGPLVLQLLSFTLLAGLLVQVSKVPSSISQEQSRQDAIYQNLTQLKAAVGELSEKSKLQEIYQELTQLKAAVGELPEKSKLQEIYQELTRLKAAVGELPEKSKLQEIYQELTWLKAAVGELPEKSKMQEIYQELTRLKAAVGELPEKSKQQEIYQELTRLKAAVGELPEKSKQQEIYQELTRLKAAVGELPEKSKQQEIYQELTQLKAAVERLCHPCPWEWTFFQGNCYFMSNSQRNWHDSITACKEVGAQLVVIKSAEEQNFLQLQSSRSNRFTWMGLSDLNQEGTWQWVDGSPLLPSFKQYWNRGEPNNVGEEDCAEFSGNGWNDDKCNLAKFWICKKSAASCSRDEEQFLSPAPATPNPPPA
# Tests used:
# Assay in all cases: glycan array binding signal (z-score within array); higher = stronger binding
# Conditions in all cases: glycan notation: IUPAC condensed, linker removed
# Neu5Ac(a2-6)Gal = biological target: Neu5Ac(a2-6)Gal
# Method in brief: (§1)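 Arrays were curated from the Consortium for Functional Glycomics database, 3228 in total, and kept only where the protein sequence was available. Binding is expressed as a within-array Z-score. This score was averaged across arrays of the same protein sequence at different concentrations or buffers and across linkers, and negative values can be read as non-binding.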
# [1] = biological target: Neu5Ac(a2-6)Gal(b1-3)GlcNAc(b1-3)[Gal(b1-4)GlcNAc(b1-6)]Gal(b1-4)Glc
# Method in brief: as §1
# Neu5Ac(a2-6)Gal(b1-4)Glc = biological target: Neu5Ac(a2-6)Gal(b1-4)Glc
# Method in brief: as §1
# [2] = biological target: Neu5Ac(a2-6)Gal(b1-4)GlcNAc
# Method in brief: as §1
# [3] = biological target: Neu5Ac(a2-6)Gal(b1-4)GlcNAc(b1-2)Man
# Method in brief: as §1
# [4] = biological target: Neu5Ac(a2-6)Gal(b1-4)GlcNAc(b1-2)Man(a1-3)Man(b1-4)GlcNAc(b1-4)GlcNAc
# Method in brief: as §1
# [5] = biological target: Neu5Ac(a2-6)Gal(b1-4)GlcNAc(b1-2)Man(a1-3)[Gal(b1-4)GlcNAc(b1-2)Man(a1-6)]Man(b1-4)GlcNAc(b1-4)GlcNAc
# Method in brief: as §1
# [6] = biological target: Neu5Ac(a2-6)Gal(b1-4)GlcNAc(b1-2)Man(a1-3)[GlcNAc(b1-2)Man(a1-6)]Man(b1-4)GlcNAc(b1-4)GlcNAc
# Method in brief: as §1
# [7] = biological target: Neu5Ac(a2-6)Gal(b1-4)GlcNAc(b1-2)Man(a1-3)[GlcNAc(b1-4)][Neu5Ac(a2-6)Gal(b1-4)GlcNAc(b1-2)Man(a1-6)]Man(b1-4)GlcNAc(b1-4)GlcNAc
# Method in brief: as §1
# [8] = biological target: Neu5Ac(a2-6)Gal(b1-4)GlcNAc(b1-2)Man(a1-3)[Man(a1-6)]Man(b1-4)GlcNAc(b1-4)GlcNAc
# Method in brief: as §1
# [9] = biological target: Neu5Ac(a2-6)Gal(b1-4)GlcNAc(b1-2)Man(a1-3)[Neu5Ac(a2-3)Gal(b1-4)GlcNAc(b1-2)Man(a1-6)]Man(b1-4)GlcNAc(b1-4)GlcNAc
# Method in brief: as §1
# [10] = biological target: Neu5Ac(a2-6)Gal(b1-4)GlcNAc(b1-2)Man(a1-3)[Neu5Ac(a2-6)Gal(b1-4)GlcNAc(b1-2)Man(a1-6)]Man(b1-4)GlcNAc(b1-4)GlcNAc
# Method in brief: as §1
# [11] = biological target: Neu5Ac(a2-6)Gal(b1-4)GlcNAc(b1-2)Man(a1-3)[Neu5Ac(a2-6)Gal(b1-4)GlcNAc(b1-2)Man(a1-6)]Man(b1-4)GlcNAc(b1-4)[Fuc(a1-6)]GlcNAc
# Method in brief: as §1
# [12] = biological target: Neu5Ac(a2-6)Gal(b1-4)GlcNAc(b1-2)Man(a1-6)Man(b1-4)GlcNAc(b1-4)GlcNAc
# Method in brief: as §1
# [13] = biological target: Neu5Ac(a2-6)Gal(b1-4)GlcNAc(b1-2)Man(a1-6)[Gal(b1-4)GlcNAc(b1-2)Man(a1-3)]Man(b1-4)GlcNAc(b1-4)GlcNAc
# Method in brief: as §1
# [14] = biological target: Neu5Ac(a2-6)Gal(b1-4)GlcNAc(b1-2)Man(a1-6)[GlcNAc(b1-2)Man(a1-3)]Man(b1-4)GlcNAc(b1-4)GlcNAc
# Method in brief: as §1
# [15] = biological target: Neu5Ac(a2-6)Gal(b1-4)GlcNAc(b1-2)Man(a1-6)[Man(a1-3)]Man(b1-4)GlcNAc(b1-4)GlcNAc
# Method in brief: as §1
# [16] = biological target: Neu5Ac(a2-6)Gal(b1-4)GlcNAc(b1-2)[Neu5Ac(a2-6)Gal(b1-4)GlcNAc(b1-4)]Man(a1-3)[GlcNAc(b1-4)][Neu5Ac(a2-6)Gal(b1-4)GlcNAc(b1-2)[Neu5Ac(a2-6)Gal(b1-4)GlcNAc(b1-6)]Man(a1-6)]Man(b1-4)GlcNAc(b1-4)GlcNAc
# Method in brief: as §1
# [17] = biological target: Neu5Ac(a2-6)Gal(b1-4)GlcNAc(b1-2)[Neu5Ac(a2-6)Gal(b1-4)GlcNAc(b1-4)]Man(a1-3)[GlcNAc(b1-4)][Neu5Ac(a2-6)Gal(b1-4)GlcNAc(b1-4)Man(a1-6)]Man(b1-4)GlcNAc(b1-4)GlcNAc
# Method in brief: as §1
# [18] = biological target: Neu5Ac(a2-6)Gal(b1-4)GlcNAc(b1-2)[Neu5Ac(a2-6)Gal(b1-4)GlcNAc(b1-6)]Man(a1-6)[Neu5Ac(a2-6)Gal(b1-4)GlcNAc(b1-2)Man(a1-3)][GlcNAc(b1-4)]Man(b1-4)GlcNAc(b1-4)GlcNAc
# Method in brief: as §1
# [19] = biological target: Neu5Ac(a2-6)Gal(b1-4)GlcNAc(b1-3)Gal(b1-3)GlcNAc
# Method in brief: as §1
# [20] = biological target: Neu5Ac(a2-6)Gal(b1-4)GlcNAc(b1-3)Gal(b1-4)GlcNAc
# Method in brief: as §1
# [21] = biological target: Neu5Ac(a2-6)Gal(b1-4)GlcNAc(b1-3)Gal(b1-4)GlcNAc(b1-2)Man(a1-3)[Neu5Ac(a2-6)Gal(b1-4)GlcNAc(b1-3)Gal(b1-4)GlcNAc(b1-2)Man(a1-6)]GalNAc
# Method in brief: as §1
# [22] = biological target: Neu5Ac(a2-6)Gal(b1-4)GlcNAc(b1-3)Gal(b1-4)GlcNAc(b1-3)Gal(b1-4)GlcNAc
# Method in brief: as §1
# [23] = biological target: Neu5Ac(a2-6)Gal(b1-4)GlcNAc(b1-3)Gal(b1-4)GlcNAc(b1-3)Gal(b1-4)GlcNAc(b1-2)Man(a1-3)[Neu5Ac(a2-6)Gal(b1-4)GlcNAc(b1-3)Gal(b1-4)GlcNAc(b1-3)Gal(b1-4)GlcNAc(b1-2)Man(a1-6)]GalNAc
# Method in brief: as §1
# [24] = biological target: Neu5Ac(a2-6)Gal(b1-4)GlcNAc(b1-3)Gal(b1-4)GlcNAc(b1-3)GalNAc
# Method in brief: as §1
# [25] = biological target: Neu5Ac(a2-6)Gal(b1-4)GlcNAc(b1-3)Gal(b1-4)GlcNAc(b1-3)[Neu5Ac(a2-6)Gal(b1-4)GlcNAc(b1-3)Gal(b1-4)GlcNAc(b1-6)]GalNAc
# Method in brief: as §1
# [26] = biological target: Neu5Ac(a2-6)Gal(b1-4)GlcNAc(b1-3)Gal(b1-4)GlcNAc(b1-6)[Gal(b1-3)]GalNAc
# Method in brief: as §1
# [27] = biological target: Neu5Ac(a2-6)Gal(b1-4)GlcNAc(b1-3)Gal(b1-4)[Fuc(a1-3)]GlcNAc(b1-3)Gal(b1-4)[Fuc(a1-3)]GlcNAc
# Method in brief: as §1
# [28] = biological target: Neu5Ac(a2-6)Gal(b1-4)GlcNAc(b1-3)GalNAc
# Method in brief: as §1
# [29] = biological target: Neu5Ac(a2-6)Gal(b1-4)GlcNAc(b1-3)[Neu5Ac(a2-6)Gal(b1-4)GlcNAc(b1-6)]GalNAc
# Method in brief: as §1
# [30] = biological target: Neu5Ac(a2-6)Gal(b1-4)GlcNAc(b1-6)GalNAc
# Method in brief: as §1
# [31] = biological target: Neu5Ac(a2-6)Gal(b1-4)GlcNAc(b1-6)[Gal(b1-3)GlcNAc(b1-3)]Gal(b1-4)Glc
# Method in brief: as §1
# [32] = biological target: Neu5Ac(a2-6)Gal(b1-4)GlcNAc(b1-6)[Gal(b1-3)]GalNAc
# Method in brief: as §1
# [33] = biological target: Neu5Ac(a2-6)Gal(b1-4)GlcNAc6S
# Method in brief: as §1
# Neu5Ac(a2-6)GalNAc = biological target: Neu5Ac(a2-6)GalNAc
# Method in brief: as §1
# [34] = biological target: Neu5Ac(a2-6)GalNAc(b1-4)GlcNAc
# Method in brief: as §1
# [35] = biological target: Neu5Ac(a2-6)GalNAc(b1-4)GlcNAc6S
# Method in brief: as §1
binder,measurement,setting,value
B1,glycan array binding signal (z-score),Neu5Ac(a2-6)Gal,-0.152
same,glycan array binding signal (z-score),[1],-0.195
same,glycan array binding signal (z-score),Neu5Ac(a2-6)Gal(b1-4)Glc,-0.184
same,glycan array binding signal (z-score),[2],-0.174
same,glycan array binding signal (z-score),[3],-0.156
same,glycan array binding signal (z-score),[4],-0.161
same,glycan array binding signal (z-score),[5],-0.165
same,glycan array binding signal (z-score),[6],-0.199
same,glycan array binding signal (z-score),[7],-0.127
same,glycan array binding signal (z-score),[8],-0.184
same,glycan array binding signal (z-score),[9],-0.097
same,glycan array binding signal (z-score),[10],-0.146
same,glycan array binding signal (z-score),[11],-0.121
same,glycan array binding signal (z-score),[12],-0.195
same,glycan array binding signal (z-score),[13],-0.176
same,glycan array binding signal (z-score),[14],-0.106
same,glycan array binding signal (z-score),[15],-0.192
same,glycan array binding signal (z-score),[16],-0.156
same,glycan array binding signal (z-score),[17],-0.183
same,glycan array binding signal (z-score),[18],-0.167
same,glycan array binding signal (z-score),[19],-0.161
same,glycan array binding signal (z-score),[20],-0.172
same,glycan array binding signal (z-score),[21],0.12
same,glycan array binding signal (z-score),[22],-0.183
same,glycan array binding signal (z-score),[23],-0.056
same,glycan array binding signal (z-score),[24],-0.178
same,glycan array binding signal (z-score),[25],-0.162
same,glycan array binding signal (z-score),[26],-0.112
same,glycan array binding signal (z-score),[27],-0.111
same,glycan array binding signal (z-score),[28],-0.123
same,glycan array binding signal (z-score),[29],-0.123
same,glycan array binding signal (z-score),[30],-0.006
same,glycan array binding signal (z-score),[31],-0.16
same,glycan array binding signal (z-score),[32],-0.146
same,glycan array binding signal (z-score),[33],-0.137
same,glycan array binding signal (z-score),Neu5Ac(a2-6)GalNAc,-0.151
same,glycan array binding signal (z-score),[34],-0.189
same,glycan array binding signal (z-score),[35],-0.154
